Test results published in US9968649B2, “Vasopressin formulations for use in treatment of hypotension” (Par Pharmaceutical, Inc., priority 2015, dated 2018).
Where “and” joins values, the source holds several entries; their conditions need not be identical. Equal entries are not always repeated. Further values from the same series stand in other lists.

Assay: Effect of temperature on vasopressin formulations: HPLC vasopressin assay and impurities on storage (Example 8)
Assay type: physicochemical
Procedure: To analyze degradation products of vasopressin that can be present in an illustrative formulation of vasopressin, gradient HPLC was performed to separate vasopressin from related peptides and formulation components. TABLE 2 below depicts the results of the experiment detailing the chemical formula, relative retention time (RRT), molar mass, and structure of vasopressin and detected impurities.
Vasopressin was detected in the eluent using UV absorbance. The concentration of vasopressin in the sample was determined by the external standard method, where the peak area of vasopressin in sample injections was compared to the peak area of vasopressin reference standards in a solution of known concentration. The concentrations of related peptide impurities in the sample were also determined using the external standard method, using the vasopressin reference standard peak area and a unit relative response factor. An impurities marker solution was used to determine the relative retention times of identified related peptides at the time of analysis.
To test the effect of temperature on the stability of vasopressin formulation, solutions containing 20 units/mL vasopressin and chlorobutanol, adjusted to pH 3.5 with acetic acid, were prepared. One mL of each vasopressin formulations was then filled into 3 cc vials. Each Vasopressin Formulation was stored either inverted or upright for at least three months, up to 24 months, at: (i) 5° C.; (ii) 25° C. and 60% relative humidity; or (iii) 40° C. and 75% humidity, and the amount of vasopressin (U/mL) and % total impurities were measured periodically. TABLES 7-12 below display the results of the experiments at 5° C. The results of the experiments at 25° C. are included in TABLES 13-18. All of the experiments were performed in triplicate. The results of the experiments at 40° C. are included in TABLES 19-24. For each temperature tested, three lots of the vasopressin formulation were stored for 24 months (5° C. and 25° C.) and 3 months (40° C.), and measurements were taken at regular intervals during the testing periods. “NMT” as used in the tables denotes “not more than.”
Experiments were also conducted on the same samples above over the course of the experiments to measure the amount of individual impurities in the samples, pH of the samples, chlorobutanol content, particulate matter, antimicrobial effectiveness, and bacterial endotoxin levels (TABLES 25-42). (NR=no reading; ND=not determined; UI=unidentified impurity).

NC(=O)CC[C@@H]1NC(=O)[C@H](Cc2ccccc2)NC(=O)[C@H](Cc2ccc(O)cc2)NC(=O)[C@@H](N)CSSC[C@@H](C(=O)N2CCC[C@H]2C(=O)N[C@@H](CCCN=C(N)N)C(=O)NCC(N)=O)NC(=O)[C@H](CC(N)=O)NC1=O [Vasopressin, Cyclo (1-6) L-Cysteinyl-L-Tyrosyl-L-Phenylalanyl-L-Glutaminyl-L-Asparaginyl-L-Cysteinyl-L-Prolyl-L-Arginyl-L-Glycinamide]
Total Impurities (Upright, 40° C. (75% humidity), 1 month): 3.8%
Total Impurities (Upright, 40° C. (75% humidity), 2 months): 7.1% and 6.3%
Total Impurities (Upright, 40° C. (75% humidity), 3 months): 10.2% and 10.5%
Total Impurities (Upright, 40° C. (75% humidity), Initial): 1.5%
Total Impurities (inverted, 5° C., 1 month): 2.0% and 2.2% and 1.9%
Total Impurities (inverted, 5° C., 2 months): 2.1% and 2.3% and 2.0%
Total Impurities (inverted, 5° C., 3 months): 2.3% and 2.4% and 2.2%
Total Impurities (inverted, 5° C., 6 months): 2.2% and 2.1% and 2.0%
Total Impurities (inverted, 5° C., 9 months): 2.3% and 2.1%
Total Impurities (inverted, 5° C., 12 months): 2.6% and 2.7% and 2.4%
Total Impurities (inverted, 5° C., 18 months): 2.9% and 2.6%
Total Impurities (inverted, 5° C., 24 months): 2.9% and 2.8%
Total Impurities (inverted, 5° C., Initial): 2.3% and 2.7% and 2.2%
Total Impurities (inverted, 40° C. (75% humidity), 2 months): 6.3%
Total Impurities (inverted, 40° C. (75% humidity), Initial): 1.5%
